Source: article PMC11876325
Results are given in words; binding and its absence hold for the method and conditions named. Some entries that bind do so weakly or less than the wild type. Each block holds one binder with its values, some of them ahead of it.

Protein sequences, listed by entry. Tags and fused reporters are not part of them.
UniProt P25454: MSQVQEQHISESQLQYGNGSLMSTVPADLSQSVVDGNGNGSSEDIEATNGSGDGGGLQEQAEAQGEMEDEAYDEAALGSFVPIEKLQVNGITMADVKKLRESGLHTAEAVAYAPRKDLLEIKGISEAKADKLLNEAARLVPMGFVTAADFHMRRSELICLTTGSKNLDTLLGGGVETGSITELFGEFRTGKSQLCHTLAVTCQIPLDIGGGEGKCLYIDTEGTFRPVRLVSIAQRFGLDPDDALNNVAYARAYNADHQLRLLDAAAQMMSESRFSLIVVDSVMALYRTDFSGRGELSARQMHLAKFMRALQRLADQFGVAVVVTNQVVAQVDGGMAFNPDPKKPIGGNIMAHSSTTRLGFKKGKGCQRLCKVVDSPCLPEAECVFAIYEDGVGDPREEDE

Key:
Experiment in all cases: two-hybrid; GAL4 DNA-binding domain (pGBD) and GAL4 activation domain (pGAD) fusions co-transformed into PJ69-4α (also its rad51∆, rad55∆, csm2∆, shu1∆ and shu2∆ derivatives); growth on SC-L-W-H, 2-3 days, 30 °C
[1] = target: T1, Psy3 (pGBD Psy3) (S. cerevisiae) (UniProt Q12318)
T1 sequence: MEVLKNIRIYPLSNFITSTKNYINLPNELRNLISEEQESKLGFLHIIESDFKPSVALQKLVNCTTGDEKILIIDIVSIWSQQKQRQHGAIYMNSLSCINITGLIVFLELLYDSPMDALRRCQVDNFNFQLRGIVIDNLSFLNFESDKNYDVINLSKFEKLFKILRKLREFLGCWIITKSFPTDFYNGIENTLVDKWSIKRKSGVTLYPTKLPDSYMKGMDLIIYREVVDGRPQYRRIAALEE

[2] = target: Rad51 (two-hybrid fusion) (S. cerevisiae) (UniProt P25454)
[3] = target: T2, Rad55 (pGBD Rad55) (S. cerevisiae) (UniProt P38953)
T2 sequence: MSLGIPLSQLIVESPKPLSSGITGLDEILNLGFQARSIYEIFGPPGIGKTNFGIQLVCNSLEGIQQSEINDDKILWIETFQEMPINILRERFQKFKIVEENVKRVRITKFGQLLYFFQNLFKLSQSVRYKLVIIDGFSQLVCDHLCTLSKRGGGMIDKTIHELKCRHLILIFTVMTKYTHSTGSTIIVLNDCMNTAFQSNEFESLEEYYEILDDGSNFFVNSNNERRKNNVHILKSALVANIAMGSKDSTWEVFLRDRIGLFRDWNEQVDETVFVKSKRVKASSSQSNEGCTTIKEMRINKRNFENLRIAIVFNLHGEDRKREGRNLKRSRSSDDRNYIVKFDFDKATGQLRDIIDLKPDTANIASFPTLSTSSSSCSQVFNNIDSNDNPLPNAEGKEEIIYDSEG

[4] = target: T3, Rad57 (pGBD Rad57) (S. cerevisiae) (UniProt P25301)
T3 sequence: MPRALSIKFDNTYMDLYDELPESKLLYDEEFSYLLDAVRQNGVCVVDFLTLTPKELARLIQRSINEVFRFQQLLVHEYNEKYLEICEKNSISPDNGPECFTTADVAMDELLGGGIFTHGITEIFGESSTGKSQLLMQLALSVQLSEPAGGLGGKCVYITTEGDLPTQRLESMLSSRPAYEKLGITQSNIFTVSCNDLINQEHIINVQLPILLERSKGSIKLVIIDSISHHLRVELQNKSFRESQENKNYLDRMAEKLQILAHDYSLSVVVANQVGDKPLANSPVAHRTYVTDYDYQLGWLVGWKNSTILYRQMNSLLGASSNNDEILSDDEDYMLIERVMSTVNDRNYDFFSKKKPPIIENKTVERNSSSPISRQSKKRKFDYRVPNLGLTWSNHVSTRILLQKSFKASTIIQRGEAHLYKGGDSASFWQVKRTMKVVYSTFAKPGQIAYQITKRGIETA

[5] = target: T4, Mcm10 (pGBD Mcm10) (S. cerevisiae) (UniProt P32354)
T4 sequence: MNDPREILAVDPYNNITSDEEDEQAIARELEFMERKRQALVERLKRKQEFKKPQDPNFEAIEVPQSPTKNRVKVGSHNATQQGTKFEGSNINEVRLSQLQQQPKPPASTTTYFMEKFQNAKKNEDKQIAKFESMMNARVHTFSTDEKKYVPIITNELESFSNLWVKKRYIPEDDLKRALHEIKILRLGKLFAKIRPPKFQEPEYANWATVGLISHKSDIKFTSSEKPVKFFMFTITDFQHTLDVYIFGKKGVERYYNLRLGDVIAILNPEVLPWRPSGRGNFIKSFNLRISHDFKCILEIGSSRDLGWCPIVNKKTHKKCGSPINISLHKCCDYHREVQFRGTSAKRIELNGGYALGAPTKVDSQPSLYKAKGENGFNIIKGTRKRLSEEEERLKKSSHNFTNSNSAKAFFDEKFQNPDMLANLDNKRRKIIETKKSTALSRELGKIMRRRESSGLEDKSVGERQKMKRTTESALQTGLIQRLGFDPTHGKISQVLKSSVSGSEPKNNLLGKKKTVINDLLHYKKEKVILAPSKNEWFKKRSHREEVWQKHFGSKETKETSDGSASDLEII

[6] = target: T5, Psy3-F15A (pGBD psy3-F15A) (S. cerevisiae) (UniProt Q12318)
T5 sequence: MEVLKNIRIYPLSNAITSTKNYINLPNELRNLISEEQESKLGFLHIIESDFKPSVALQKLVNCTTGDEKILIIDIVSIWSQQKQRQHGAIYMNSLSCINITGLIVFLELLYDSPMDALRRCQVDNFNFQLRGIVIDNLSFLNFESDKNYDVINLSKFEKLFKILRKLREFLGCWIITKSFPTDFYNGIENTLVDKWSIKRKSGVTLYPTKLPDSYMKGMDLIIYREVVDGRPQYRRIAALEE

[7] = target: T6, Psy3-L12A (pGBD psy3-L12A) (S. cerevisiae) (UniProt Q12318)
T6 sequence: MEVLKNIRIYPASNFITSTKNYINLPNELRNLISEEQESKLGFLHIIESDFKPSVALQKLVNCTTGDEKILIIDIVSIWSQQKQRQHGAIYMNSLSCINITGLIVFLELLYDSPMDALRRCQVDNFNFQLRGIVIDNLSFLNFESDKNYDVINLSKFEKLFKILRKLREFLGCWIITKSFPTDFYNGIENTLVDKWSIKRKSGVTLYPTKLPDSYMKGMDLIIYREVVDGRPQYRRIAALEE

[8] = target: T7, Psy3-S18A (pGBD psy3-S18A) (S. cerevisiae) (UniProt Q12318)
T7 sequence: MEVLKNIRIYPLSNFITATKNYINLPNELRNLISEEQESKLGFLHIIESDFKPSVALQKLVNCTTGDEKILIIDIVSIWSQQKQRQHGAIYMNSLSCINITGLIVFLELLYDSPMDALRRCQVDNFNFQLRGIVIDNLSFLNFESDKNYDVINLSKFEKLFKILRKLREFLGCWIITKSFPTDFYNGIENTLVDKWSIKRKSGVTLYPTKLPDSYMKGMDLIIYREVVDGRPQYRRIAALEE

[9] = target: T8, Psy3-T17A (pGBD psy3-T17A) (S. cerevisiae) (UniProt Q12318)
T8 sequence: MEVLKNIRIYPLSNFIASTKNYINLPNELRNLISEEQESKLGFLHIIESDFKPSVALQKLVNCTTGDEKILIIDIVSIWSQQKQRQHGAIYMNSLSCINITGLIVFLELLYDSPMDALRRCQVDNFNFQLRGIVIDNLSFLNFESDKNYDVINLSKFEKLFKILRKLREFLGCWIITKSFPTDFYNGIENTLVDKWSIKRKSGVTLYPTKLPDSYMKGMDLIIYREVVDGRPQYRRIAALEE

[10] = target: T9, Psy3-Y10A (pGBD psy3-Y10A) (S. cerevisiae) (UniProt Q12318)
T9 sequence: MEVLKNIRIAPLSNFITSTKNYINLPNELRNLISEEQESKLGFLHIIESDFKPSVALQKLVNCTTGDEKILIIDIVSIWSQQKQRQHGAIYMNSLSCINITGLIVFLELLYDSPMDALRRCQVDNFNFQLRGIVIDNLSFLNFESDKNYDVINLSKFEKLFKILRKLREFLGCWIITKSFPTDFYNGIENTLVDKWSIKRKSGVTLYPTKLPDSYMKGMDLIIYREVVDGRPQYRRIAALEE

binding [5]: no binding
B2: Shu2 (pGAD Shu2) (protein, UniProt P38957 1-223)
chain: MSKDVIEYSKLFAKLVNTNDDTKLDDTIASFLYYMFPRELFIRAISLLESSDMFIYILDRVHNKEGNEHTSLIDVLVDEFYKGSSNSLLEYRLIVKDTNDGAPPILVDIAHWFCSCEEFCKYFHEALEKTDEKEELHDVLINEVDDHLQFSDDRFAQLDPHSLSKQWYFKFDKVCCSHLLAFSILLRSSINVLKFFTVNSNKVFVIAIDNIDEWLNLHINIVE

binding [5]: no binding
B3: Psy3 (pGAD Psy3) (protein, UniProt Q12318 1-242)
chain: MEVLKNIRIYPLSNFITSTKNYINLPNELRNLISEEQESKLGFLHIIESDFKPSVALQKLVNCTTGDEKILIIDIVSIWSQQKQRQHGAIYMNSLSCINITGLIVFLELLYDSPMDALRRCQVDNFNFQLRGIVIDNLSFLNFESDKNYDVINLSKFEKLFKILRKLREFLGCWIITKSFPTDFYNGIENTLVDKWSIKRKSGVTLYPTKLPDSYMKGMDLIIYREVVDGRPQYRRIAALEE

The remaining lines, values behind:

B1: Mcm7 (pGAD Mcm7) (protein, UniProt P38132 1-845)
chain: MSAALPSIQLPVDYNNLFNEITDFLVTFKQDTLSSDATRNENEDENLDAENIEQHLLEKGPKYMAMLQKVANRELNSVIIDLDDILQYQNEKFLQGTQADDLVSAIQQNANHFTELFCRAIDNNMPLPTKEIDYKDDVLDVILNQRRLRNERMLSDRTNEIRSENLMDTTMDPPSSMNDALREVVEDETELFPPNLTRRYFLYFKPLSQNCARRYRKKAISSKPLSVRQIKGDFLGQLITVRGIITRVSDVKPAVEVIAYTCDQCGYEVFQEVNSRTFTPLSECTSEECSQNQTKGQLFMSTRASKFSAFQECKIQELSQQVPVGHIPRSLNIHVNGTLVRSLSPGDIVDVTGIFLPAPYTGFKALKAGLLTETYLEAQFVRQHKKKFASFSLTSDVEERVMELITSGDVYNRLAKSIAPEIYGNLDVKKALLLLLVGGVDKRVGDGMKIRGDINVCLMGDPGVAKSQLLKAICKISPRGVYTTGKGSSGVGLTAAVMKDPVTDEMILEGGALVLADNGICCIDEFDKMDESDRTAIHEVMEQQTISISKAGINTTLNARTSILAAANPLYGRYNPRLSPLDNINLPAALLSRFDILFLMLDIPSRDDDEKLAEHVTYVHMHNKQPDLDFTPVEPSKMREYIAYAKTKRPVMSEAVNDYVVQAYIRLRQDSKREMDSKFSFGQATPRTLLGIIRLSQALAKLRLADMVDIDDVEEALRLVRVSKESLYQETNKSKEDESPTTKIFTIIKKMLQETGKNTLSYENIVKTVRLRGFTMLQLSNCIQEYSYLNVWHLINEGNTLKFVDDGTMDTDQEDSLVSTPKLAPQTTASANVSAQDSDIDLQDA
binding [1]: binds
binding [2]: no binding
binding [3]: no binding
binding [4]: no binding

B4: Csm2 (pGAD Csm2) (protein, UniProt P40465 1-213)
chain: MEYEDLELITIWPSPTKNKLCQFIKQNLSKEHVVTQLFFIDATSSFPLSQFQKLVPPTLPENVRIYENIRINTCLDLEELSAITVKLLQILSMNKINAQRGTEDAVTEPLKIILYINGLEVMFRNSQFKSSPQRSHELLRDTLLKLRVMGNDENENASIRTLLEFPKEQLLDYYLKKNNNTRTSSVRSKRRRIKNGDSLAEYIWKYYADSLFE
binding [5]: no binding
binding [1]: binds
binding [6]: binds
binding [7]: binds
binding [8]: binds
binding [9]: binds
binding [10]: binds
